About 14,000 (4.5%) of roughly 310,000 compounds showed an effect of 50% or more. The effect is printed as a negative number. This is one part of the list.
Target: human ether-à-go-go-related gene (hERG) potassium channel (human, UniProt Q12809)
Test: primary screen, population patch clamp on CHO cells stably expressing hERG
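Also: peak tail current of the secondary pulse compared with the same well before compound.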

Sequence of human ether-à-go-go-related gene (hERG) potassium channel (Q12809 whole entry, looked up): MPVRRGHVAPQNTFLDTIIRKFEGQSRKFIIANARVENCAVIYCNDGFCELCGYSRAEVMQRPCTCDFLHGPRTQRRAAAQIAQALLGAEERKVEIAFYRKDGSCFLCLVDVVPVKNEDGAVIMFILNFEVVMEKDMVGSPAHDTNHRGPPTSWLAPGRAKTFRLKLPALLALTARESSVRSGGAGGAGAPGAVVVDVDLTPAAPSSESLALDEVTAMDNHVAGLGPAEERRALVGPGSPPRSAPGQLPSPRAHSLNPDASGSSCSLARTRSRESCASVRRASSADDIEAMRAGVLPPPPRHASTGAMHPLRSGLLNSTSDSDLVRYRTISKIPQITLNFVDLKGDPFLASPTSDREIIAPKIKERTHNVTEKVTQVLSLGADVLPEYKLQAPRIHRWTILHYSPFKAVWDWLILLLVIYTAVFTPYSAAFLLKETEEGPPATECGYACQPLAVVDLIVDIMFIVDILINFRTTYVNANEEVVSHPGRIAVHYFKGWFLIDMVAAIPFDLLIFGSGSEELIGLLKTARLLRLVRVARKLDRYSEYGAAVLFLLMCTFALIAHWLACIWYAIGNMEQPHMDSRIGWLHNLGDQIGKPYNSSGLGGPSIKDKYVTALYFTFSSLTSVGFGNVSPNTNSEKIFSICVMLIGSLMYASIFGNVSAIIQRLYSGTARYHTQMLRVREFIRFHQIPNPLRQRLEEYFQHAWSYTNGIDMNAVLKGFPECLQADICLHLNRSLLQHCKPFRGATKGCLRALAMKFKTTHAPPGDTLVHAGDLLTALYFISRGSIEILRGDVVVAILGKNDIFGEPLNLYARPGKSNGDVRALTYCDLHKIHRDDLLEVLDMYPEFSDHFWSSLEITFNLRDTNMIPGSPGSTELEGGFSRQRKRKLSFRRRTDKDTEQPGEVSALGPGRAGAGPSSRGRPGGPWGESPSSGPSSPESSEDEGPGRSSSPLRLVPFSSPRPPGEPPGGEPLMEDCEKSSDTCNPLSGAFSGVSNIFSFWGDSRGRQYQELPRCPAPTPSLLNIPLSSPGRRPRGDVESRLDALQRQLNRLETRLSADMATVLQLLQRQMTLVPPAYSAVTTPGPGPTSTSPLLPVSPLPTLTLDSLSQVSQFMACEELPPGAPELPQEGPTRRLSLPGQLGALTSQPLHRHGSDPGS

SMILES	hERG current change (%, negative = inhibition) at 10uM
O=c1nc2n(c3c4c(sc13)CCC4)CCC2	5.51%
O=C1NC(=Nc2ccc(Cl)cc2)SC1Cc1cccc(Cl)c1Cl (stereo not shown)	-9.15%
COc1ccc(C(F)(F)F)cc1N/C=C/c1nnnn1-c1ccc2ccccc2c1	1.6%
CCCCC(NS(=O)(=O)c1ccc(OC)cc1)C(=O)O (stereo not shown)	-2.21%
CCOC(=O)C(O)(c1ccc(NC(=O)NC)cc1)C(F)(F)F (stereo not shown)	4.26%
O=C(CCC(=O)Nc1ccc(F)cc1)N/N=C/c1ccccc1	11.7%
CC(Sc1ccccn1)C(=O)Nc1ccccc1 (stereo not shown)	4.37%
Cc1ccc(S/C(=N\S(=O)(=O)c2ccc(Cl)cc2)c2ccccc2)cc1	11.5%
CCn1c(-c2cccc(Cl)c2)n[nH]c1=S	9.71%
O=C(NNC(=O)c1csc(-c2cccnc2)n1)Nc1ccc(Cl)cc1	27.2%
O=C(Nc1ccccc1F)c1ccc(-c2cccc([N+](=O)[O-])c2)o1	20%
CC1CCCC(C)N1CCCNC(=O)c1ccc2nc(N3CCOCC3)sc2c1 (stereo not shown)	-10.3%
CC(C)(C)NC(=O)C(=O)NCc1ccccn1	18.5%
Cc1nnc(NC(=O)CSc2ccc(-c3ccc(Cl)cc3)nn2)s1	17%
COc1ccccc1CNC(=O)CCNC(=O)N1CC(=O)Nc2ccccc21	16.4%
COc1ccc(CN2CCNC(=O)C2CC(=O)NC2CCCC2)c(C)c1C (stereo not shown)	5.26%
COCCCN(C(=S)Nc1ccc(C)cc1Cl)C(C)c1ccncc1 (stereo not shown)	-19%
O=C(O)c1ccccc1C(=O)N(c1ccccc1)c1ccccc1	-2.55%
CCC(=O)Nc1c2c(nn1-c1ccc(F)cc1)CS(=O)C2 (stereo not shown)	5.41%
Cc1cc(C(=O)NNC(=S)NC(C)c2ccccc2)cs1 (stereo not shown)	-7.03%
O=c1c2nnn(-c3ccccc3)c2ncn1C/C=C/c1ccccc1	19.5%
CCN1CCN(c2ccc(NC(=O)CCc3c(C)nc4c(-c5ccccc5)c(C)nn4c3C)cc2)CC1	-20%
COc1ccc(C2=NN(C(=O)CCC(=O)O)C(c3ccc([N+](=O)[O-])cc3)C2)cc1 (stereo not shown)	10.2%

SMILES	hERG current change (%, negative = inhibition) at 10uM
CC1(C)CC(=O)C=C(NCCCNC2CCCCC2)C1	12.4%
COc1ccccc1CNC(=O)C1CCN(C(=O)[C@@H]2Cc3ccccc3CN2)CC1	-25.6%
CC(=O)c1c(C)[nH]c(C(=O)Nc2cccc(S(=O)(=O)N3CCCCC3)c2)c1C	13.7%
CCOc1ccc(/C=N/NC(=O)c2ccc(CSc3nc4ccccc4[nH]3)cc2)cc1	6.74%
O=c1[nH]c(N2CCOCC2)nc2ncn(Cc3ccccc3)c12	6.6%
O=C(NCCSc1c[nH]c2ccccc12)c1ccco1	-1.65%
N#C/C(=C/Nc1ccccc1)c1ccsc1	7.85%
C[C@]12CCC3C(CCC4=C/C(=N/OCC(=O)NC(CCC(=O)O)C(=O)O)CC[C@@]43C)C1CCC2O (stereo partly shown)	14.3%
O=C(COC(=O)CNS(=O)(=O)/C=C/c1ccccc1)Nc1cccc2ccccc12	14.6%
CC(=O)NS(=O)(=O)c1ccc(NC(=S)NC(=O)Cc2ccccc2)cc1	9.41%
CCCCN(CCCC)CCCNC(=O)C12CN(Cc3ccccc3)CC1C(c1cccc([N+](=O)[O-])c1)=NO2 (stereo not shown)	-80.6%
CCOc1ccc(NC(=O)CN2CCN(Cc3c(F)cccc3F)CC2)cc1	-75.3%
Cc1cc(C)cc(NC(=S)N(CCCN2CCN(C)CC2)Cc2cccs2)c1	-63.3%
CCOC(=O)c1c(C)[nH]c(C(=O)Cn2nnc(-c3ccc(Cl)cc3)n2)c1C	2%
COCCn1c(COc2ccc(OC)cc2)nc2ccccc21	-14.3%
O=C(O)c1cc(S(=O)(=O)N2CCOCC2)ccc1N1CCCCC1	23.4%
CCOc1ccccc1N(C(=O)c1ccco1)C(C(=O)NC1CCCC1)c1cccnc1 (stereo not shown)	-3.37%
O=C(Nc1cc(=O)[nH]c2ncnn12)c1ccccc1Cl	1.15%
O=C(CN1CCc2ccccc2C1)Nc1ccccc1C(F)(F)F.O=C(O)C(=O)O	10.6%
CC(C)C(=O)Nc1nnc(S(=O)(=O)N2c3ccccc3CC2C)s1 (stereo not shown)	13.4%
CNC(=O)Nc1cccc(NC(=O)NC)n1	-2.6%
CCOC(=O)N1CCN(C(=O)Cc2ccccc2OC)CC1	19.7%
Cc1cc(/C=C2/NC(=O)N(c3ccccc3)C2=O)c(C)n1C(C)C	33.9%

SMILES	hERG current change (%, negative = inhibition) at 10uM
COc1ccccc1-c1nnc(SCc2ccccn2)n1C	-10.2%
Cc1cc(NC(=O)CC#N)n(-c2ccccc2)n1	21.3%
COc1ccccc1NC(=O)CN1CCN(CC(=O)Nc2ccc(OCc3ccccc3)cc2)CC1	-25.1%
Cc1ccccc1-c1nn(-c2ccccc2)cc1C(=O)NCC(c1ccco1)N1CCCC1 (stereo not shown)	-14.3%
CCOc1cc(CNC(C)C)c(Cl)cc1OCC(=O)NCCc1ccccc1	-16.4%
CCCC(=O)NC(c1ccc(OC)c(OC)c1)c1cc(Cl)c2cccnc2c1O (stereo not shown)	7.56%
CC1CCC2(CC1)NC(=O)N(Cc1nnc(-c3cccs3)o1)C2=O (stereo not shown)	-2.73%
O=c1c2ccccc2c(/C=N/n2cnnc2)c(O)n1-c1ccccc1	-3.51%
CN(C)c1ccc(/C=N/N(CCC#N)C2=NS(=O)(=O)c3ccccc32)cc1	19%
CC(C)OC(=O)/C(=C/c1ccc(Br)cc1)NC(=O)c1ccco1	-32.9%
O=C(NCCNc1ccnc2cc(Cl)ccc12)c1ccccc1F	-66.4%
CCc1ccc[n+](-c2nc3ccccc3nc2C(=C=[N-])C#N)c1	-9.11%
O=C(Nc1ccc(CN2CCCCC2)cc1)c1cccc(F)c1	-40%
Cc1ccc(NC(=O)C(=O)NCCN2CCN(S(C)(=O)=O)CC2)cc1C	0.0768%
O=C(NCCCN1CCCC1=O)C1CCN(S(=O)(=O)c2ccc(Cl)cc2)CC1	-8.8%
O=C(O)CCNC1CCCCC1	16.2%
CC(=O)c1ccc(NC(=O)CSc2ccc(-c3ccco3)nn2)cc1	4.76%
COc1ccc(C2CC(=O)C(C=NCCO)=C(O)C2)cc1 (stereo not shown)	3.22%
Cc1ccccc1C(=O)N1CCN(c2ccc(NC(=O)c3cccs3)cc2)CC1	4.97%
Cc1cc(N2CCN(c3ccccc3)CC2)nc(N2CCOCC2)n1	-44.9%
O=C(O)CC(Cc1ccc(Cl)cc1)C(=O)Nc1ccc([N+](=O)[O-])cc1 (stereo not shown)	14.5%
CCn1c(=S)[nH]c2cc(Cl)ccc21	11.5%
COc1ccc(C(=O)OCC(=O)N2CCCC2=O)c(OC)c1	22.2%

SMILES	hERG current change (%, negative = inhibition) at 10uM
CCCNc1c(NS(=O)(=O)c2ccc(C(C)(C)C)cc2)c(=O)oc2ccccc12	10.8%
Cc1cccc(OCC2CCCN(Cc3nc(C4CC4)no3)C2)c1 (stereo not shown)	3.87%
OC(CNCCc1ccc(Cl)cc1)COCc1ccco1 (stereo not shown)	-44.6%
CCc1ccc(CN/C=C/C(=O)c2ccc(Br)cc2)cc1	-1.34%
Cc1ccc(-c2cc(-c3ccc(F)cc3)nc(N)c2C#N)o1	9.35%
CCOC(=O)c1cnc(SCC(=O)N2CCC(C(N)=O)CC2)nc1N	12.7%
Cc1ccnc(NS(=O)(=O)c2cnc(Cl)c(Br)c2)c1	-9.39%
O=C(CSc1ncn[nH]1)NC1CCCc2ccccc21 (stereo not shown)	20%
COc1ccc(CCNC(=O)CSc2nnc(-c3cccc(F)c3)o2)cc1OC	11.7%
COC(=O)c1cc(S(=O)(=O)N2CCCC(C)C2)c[nH]1 (stereo not shown)	2.71%
CS(=O)(=O)N(CC(=O)Nc1ccc(Cl)c(Cl)c1)C1CCCCC1	-16.7%
O=C(Nc1cccnc1)c1ccc(COc2cc(Cl)ccc2Cl)o1	108%
Cc1ccc(N2CC(C(=O)N3CCC(c4nc5ccccc5[nH]4)CC3)CC2=O)cc1C (stereo not shown)	-46.2%
CNCCOCC(O)CSc1ccccc1 (stereo not shown)	12.5%
COc1cc(Cl)c(C)cc1NC(=O)COC(=O)C(NS(=O)(=O)c1ccc(Cl)cc1)C(C)O (stereo not shown)	3.83%
COc1ccc(-c2cc(C(F)F)n3ncc(C(=O)NCC4CCCO4)c3n2)cc1 (stereo not shown)	0.12%
COC(=O)c1sccc1NC(=O)c1ccc(Br)s1	17%
Cc1ccc(NC(=O)N2CCC(O)(c3ccc(Cl)cc3)CC2)cc1	-13.8%
O=C([C@@H]1CCCN1C(=O)c1cccs1)N1CCN(S(=O)(=O)c2ccccc2F)CC1	-18.8%
CCN(CC)c1nc(N)c(C#N)c(CC#N)c1C#N	-9.69%
O=C(NCCc1c[nH]c2ccccc12)c1ccc2c(c1)OCO2	7.05%
COc1ccc(CC(=O)NCc2ccco2)cc1OC	13.4%
